According to PubChem BioAssay AID504845 (National Center for Advancing Translational Sciences (NCATS), 2011):
Where “and” joins values, the source holds several entries; their conditions need not be identical. Identical values can stand only once. In all, about 390,000 compounds went through this assay and about 150 (0.038%) were called active. The shares of active, inactive and inconclusive entries below differ from those in the screen. The call rests on the fitted dose curve; in most records, active means well fitted inhibition curve with a large enough effect; inconclusive means small, poorly fitted or top-dose-only effect; inactive means no such curve, though single readings can be large or run the other way. A potency beside an inconclusive call is a rough fit, not a confirmed value.

Molecular target: Regulator of G-protein signaling 4 (Homo sapiens) (UniProt P49798)
UniProt P49798, sequence (P49798 whole entry, looked up): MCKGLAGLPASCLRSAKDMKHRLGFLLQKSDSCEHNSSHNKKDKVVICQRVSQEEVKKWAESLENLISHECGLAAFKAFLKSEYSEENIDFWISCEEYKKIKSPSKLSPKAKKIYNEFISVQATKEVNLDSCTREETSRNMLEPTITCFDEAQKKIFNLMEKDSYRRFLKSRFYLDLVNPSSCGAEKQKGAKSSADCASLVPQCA
Assay: Inhibitors of Regulator of G Protein Signaling (RGS) 4: qHTS; further: nearly all actives have a fitted effect of over 75% in size
Conditions: Transcreener GDP fluorescence polarization, RGS4-accelerated GTP hydrolysis; series mostly up to 114 µM; activity change, negative = inhibition: at the top concentration
Summary of the method: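 MLSMR compounds (23 nl, pin-transferred) preincubated 10 min at room temperature with a 500nM (2x) first reagent, then RGS4 at 900nM (2x) plus Transcreener GDP mix added; fluorescence polarization (620/688 nm) read before and after 90 min at 30 °C.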
On the % scale 0 is the no-effect control and ±100 the full control effect; potency means the concentration at half of the fitted maximal effect; tags describe the fitted curve by direction and shape.

Structure (SMILES) | activity change, negative = inhibition | Potency
COc1ccc(CCN)cc1OC | inactive: 10.2% | 
CN1C(=O)NC(=O)/C(=C/c2ccc([N+](=O)[O-])s2)C1=O |  | inconclusive: 50.1 µM [inhibitor, partial curve, poor fit]
CC12CCC(O)CC1CCC1C2CCC2(C)C(C3=CC(=O)OC3)C(O)CC12O (stereo not given) | inactive: -22.7% | 
Nc1nc(N)c2nc(CNc3ccc(C(=O)NC(CCC(=O)O)C(=O)O)cc3)cnc2n1 (stereo not given) |  | inconclusive: 0.15 µM [inhibitor, full curve, poor fit]
CCc1ccc(/C=C(/C#N)C(N)=S)cc1 |  | inconclusive: 44.7 µM [inhibitor, partial curve, poor fit]
N#Cc1c(/N=C/c2c(O)n(Cc3ccco3)c(=O)[nH]c2=O)sc2c1CCCC2 |  | inconclusive: 17.8 µM [inhibitor, full curve, poor fit]
CN(C)/C=C1/C(=O)NC(=O)N(CCNc2ncc(C(F)(F)F)cc2Cl)C1=O |  | inconclusive: 79.4 µM [inhibitor, partial curve, poor fit]
COc1cc(/C=C2/C(=O)NC(=O)N(c3ccccc3)C2=O)ccc1O |  | inconclusive: 79.4 µM [inhibitor, partial curve, poor fit]
CCNC(=S)N(C)CCc1cc2c(c(OC)c1C=C1C(=O)N(C)C(=O)N(C)C1=O)OCO2 |  | inconclusive: 79.4 µM [inhibitor, single point]
COc1ccc(CN2C(=O)NC(=O)/C(=C\c3ccc(OC)c(OC)c3OC)C2=O)cc1 |  | inconclusive: 44.7 µM [inhibitor, partial curve, poor fit]
CCCCn1c(O)c(C=NC2CCCCC2N)c(=O)[nH]c1=O (stereo not given) |  | inconclusive: 100 µM [inhibitor, single point]
CCCCn1c(NS(=O)(=O)c2ccc(C)cc2)c(C(=O)OCC)c2nc3ccccc3nc21 |  | inconclusive: 100 µM [inhibitor, single point]
Cc1c(C=O)c2ccccc2n1Cc1cccc(F)c1 |  | inconclusive: 50.1 µM [inhibitor, partial curve, poor fit]
Cc1cccc(N2C(=O)NC(=O)/C(=C/c3ccc([N+](=O)[O-])o3)C2=O)c1 |  | inconclusive: 28.2 µM [inhibitor, full curve, poor fit]
CCOP(=S)(OCC)Oc1cc(C)oc(=O)c1Cl |  | inconclusive: 10 µM [inhibitor, full curve, poor fit]
COc1ccc(N2C(=O)NC(=O)/C(=C\c3ccccc3[N+](=O)[O-])C2=O)cc1 |  | inconclusive: 31.6 µM [inhibitor, partial curve, poor fit]
O=C1NC(=O)C(=Cc2ccc(Sc3ccccc3)o2)C(=O)N1 |  | inconclusive: 28.2 µM [inhibitor, full curve, poor fit]
CSc1ncc(/C=C2/C(=O)NC(=O)N(C3CCCCC3)C2=O)cn1 |  | inconclusive: 39.8 µM [inhibitor, partial curve, poor fit]
NCC1OC(O[C@H]2[C@H](O)[C@@H](OC3C(O)C(N)CC(N)C3OC3OC(CO)C(O)C(O)C3N)O[C@@H]2CO)C(N)C(O)C1O (stereo not given in full) |  | inconclusive: 9.47 µM [inhibitor, partial curve, poor fit]
C#C[C@]1(O)CCC2C3CC=C4C[C@H](O)CC[C@]4(C)C3CC[C@@]21C (stereo not given in full) |  | inconclusive: 89.1 µM [inhibitor, single point]
CCN1C(=O)/C(=C/c2ccc(N(CC)CC)cc2OC)C(=O)NC1=S |  | inconclusive: 50.1 µM [inhibitor, partial curve, poor fit]
CCN(CC)c1ccc(/C=C2\C(=O)NC(=O)N(Cc3ccco3)C2=O)cc1 |  | inconclusive: 44.7 µM [inhibitor, partial curve, poor fit]
COc1ccc(/C=C2/C(=O)NC(=O)N(c3ccccc3)C2=O)cc1CN1C(=O)c2ccccc2C1=O |  | inconclusive: 50.1 µM [inhibitor, partial curve, poor fit]
CC[C@H](C)[C@H](NC(=O)[C@H](CCCN=C(N)N)NC(=O)[C@H](CCCN=C(N)N)NC(=O)[C@H](CC(C)C)NC(=O)[C@H](Cc1ccccc1)NC(=O)CNC(=O)CNC(=O)[C@@H](N)Cc1ccc(O)cc1)C(=O)N[C@@H](CCCN=C(N)N)C(=O)N1CCC[C@H]1C(=O)N[C@@H](CCCCN)C(=O)N[C@@H](CC(C)C)C(=O)N[C@@H](CCCCN)C(=O)O |  | inconclusive: 0.0053 µM [inhibitor, full curve, poor fit]
O=C1c2ccccc2C(=O)N1SC1CCCCC1 |  | inconclusive: 20 µM [inhibitor, full curve, poor fit]
Cc1ccc(N2C(=O)NC(=O)/C(=C\C=C\c3ccco3)C2=O)cc1C |  | inconclusive: 39.8 µM [inhibitor, full curve, poor fit]
O=C1NC(=S)NC(=O)C1=Cc1cccc2cc3ccccc3cc12 |  | inconclusive: 20 µM [inhibitor, full curve, poor fit]
Cc1ccccc1N1C(=O)NC(=O)/C(=C\c2cnn(-c3ccccc3)c2)C1=O |  | inconclusive: 39.8 µM [inhibitor, partial curve, poor fit]

Structure (SMILES) | activity change, negative = inhibition | Potency
Cc1ccc(C=C2C(Cl)=C(Cl)C(Cl)=C2Cl)cc1 |  | inconclusive: 50.1 µM [inhibitor, partial curve, poor fit]
N[C@H](Cc1ccc(O)cc1)C(=O)O |  | inconclusive: 0.0752 µM [inhibitor, full curve, poor fit]
CCN1C[C@]2(COC)CC[C@H](OC)[C@@]34C5C[C@@H]6[C@@H](OC)C[C@@]7(OCO[C@@]7([C@@H](O)C23)[C@@H]14)C5[C@H]6OC (stereo not given in full) |  | inconclusive: 13.4 µM [inhibitor, partial curve, poor fit]
COc1cc(/C=C2/SC(=S)N(Cc3ccccc3)C2=O)ccc1OCC(=O)O |  | inconclusive: 50.1 µM [inhibitor, partial curve, poor fit]
O=C(NC1C(=O)NNC1c1ccc(Cl)cc1)c1ccc(F)cc1 (stereo not given) |  | inconclusive: 44.7 µM [inhibitor, partial curve, poor fit]
Cc1nc2ccccc2c(=O)n1-c1cccc(C(F)(F)F)c1 | inactive: 15.8% | 
c1cc(OCCN2CC2)ccn1 |  | inconclusive: 89.1 µM [inhibitor, single point]
O=C1NC(=O)C(=Cc2ccc(-c3ccc(Cl)cc3)o2)C(=O)N1 |  | inconclusive: 17.8 µM [inhibitor, full curve, poor fit]
CC(C(=O)OC1CC2CCC(C1)N2C)c1ccc(Br)cc1 (stereo not given) |  | inconclusive: 0.006 µM [inhibitor, full curve, poor fit]
O=C1NC(=O)C(=Cc2ccc(N3CCN(C(=O)c4ccccc4)CC3)c([N+](=O)[O-])c2)C(=O)N1 |  | inconclusive: 17.8 µM [inhibitor, partial curve, poor fit]
C=CCN1CCc2cccc3c2C1Cc1ccc(O)c(O)c1-3 (stereo not given) |  | inconclusive: 0.006 µM [inhibitor, full curve, poor fit]
COc1cc(C2c3cc4c(cc3CC3COC(=O)C32)OCO4)cc(OC)c1O (stereo not given) |  | inconclusive: 79.4 µM [inhibitor, single point]
CC(CCN1CC1)=NNC(=O)Nc1cccc2ccccc12 |  | inconclusive: 50.1 µM [inhibitor, partial curve, poor fit]
CCN(CC)c1ccc(NC(=O)c2cccc(C)c2)cc1S(=O)(=O)Nc1ccccc1OC |  | inconclusive: 50.1 µM [inhibitor, partial curve, poor fit]
O=C1NC(=O)C(=Cc2ccc(-c3ccccc3[N+](=O)[O-])o2)C(=O)N1 |  | inconclusive: 20 µM [inhibitor, full curve, poor fit]
Cc1cccc(Cn2cccc(C(=O)Nc3cc(C)on3)c2=O)c1 | inactive: 7.37% | 
COc1ccc2c3c1O[C@H]1[C@@H](O)C=C[C@H]4C(C2)NCCC341 (stereo not given in full) |  | inconclusive: 8.44 µM [inhibitor, partial curve, poor fit]
C=CCN1CCc2cccc3c2[C@H]1Cc1ccc(O)c(O)c1-3 |  | inconclusive: 79.4 µM [inhibitor, partial curve, poor fit] and inconclusive: 33.6 µM [inhibitor, partial curve, poor fit]
CC(C)Nc1ccc(Nc2ccccc2)cc1 |  | inconclusive: 31.6 µM [inhibitor, full curve, poor fit]
CCCCCCCCCCCCCCCCOC[C@H](COP(=O)([O-])OCC[N+](C)(C)C)OC(C)=O |  | inconclusive: 0.0947 µM [inhibitor, full curve, poor fit]
CC(C)CC(NC(=O)C1CCCCC1)C(=O)N1CCC2(CC1)OCCO2 (stereo not given) | inactive: 4.66% | 
O=c1c2ccccc2nc(/C=C/c2ccco2)n1-c1ccccc1O |  | inconclusive: 100 µM [inhibitor, partial curve, poor fit]
COc1ccc(C(C)=O)cc1Cc1c(O)[nH]c(=S)[nH]c1=O |  | inconclusive: 79.4 µM [inhibitor, partial curve, poor fit]
Cc1[nH]c2ccccc2c1CCN | inactive: 6.83% [at 11.4 µM] | 
Oc1ccc2c3c1O[C@H]1c4[nH]c5ccccc5c4C[C@@]4(O)C(C2)N(CC2CC2)CCC314 (stereo not given in full) |  | inconclusive: 0.189 µM [inhibitor, full curve, poor fit]
CCc1c(C)nc(N)nc1N1N=C1SC(C(C)=O)C(C)=O |  | inconclusive: 79.4 µM [inhibitor, partial curve, poor fit]
Oc1ccc(/C=N/NP(=S)(c2ccccc2)c2ccccc2)c(O)c1O |  | inconclusive: 79.4 µM [inhibitor, single point]
